Reference: patent US20260200947A1, “FUSED CYCLIC COMPOUNDS AND USE THEREOF” (Jacobio Pharmaceuticals Co., Ltd., priority 2022, published 2026)
pIC50: −log10 of the molar value.

target: GppNp-KRAS G12D (Homo sapiens, UniProt P01116, G12D); experiment: biochemical

SMILES	pIC50
C#Cc1c(F)ccc2cc(N)cc(-c3nc4c5c(nc(OCC6(CN7CC8CC8C7)CC6)nc5c3F)N3CCCOCC3N4C)c12 (stereo not shown) [Compound 117]	6.15
C#Cc1c(F)ccc2cc(N)cc(-c3nc4c5c(nc(OC[C@@]67CCCN6C[C@H](F)C7)nc5c3F)N3CCOCC3N4C3CC3)c12 (stereo partly shown) [Compound 96]	< 6.00
C#Cc1c(F)ccc2cc(N)cc(-c3nc4c5c(nc(OC[C@@]67CCCN6C[C@H](F)C7)nc5c3F)N3CCCC[C@@H](F)C3N4C)c12 (stereo partly shown) [Compound 49]	7.32
C#Cc1c(F)ccc2cc(N)cc(-c3nc4c5c(nc(OC(C)[C@@]67CCCN6C[C@H](F)C7)nc5c3F)N3CCCOCC3N4C)c12 (stereo partly shown) [Compound 150]	< 6.00
C#Cc1c(F)ccc2cc(N)cc(-c3nc4c5c(nc(OC[C@@]67CCCN6C[C@H](F)C7)nc5c3F)N3CC=CCCC3N4C)c12 (stereo partly shown) [Compound 99]	6.58
N#Cc1c(N)sc2c(F)ccc(-c3nc4c5c(nc(OC[C@@]67CCCN6C[C@H](F)C7)nc5c3F)N3CCCOC[C@H]3CO4)c12 [Compound 160]	7.13
C#Cc1c(F)ccc2cc(N)cc(-c3nc4c5c(nc(OC[C@@]67CCCN6C[C@H](F)C7)nc5c3F)N3CC(CC#N)COCC3N4C)c12 (stereo partly shown) [Compound 126]	6.59
C#Cc1c(F)ccc2cc(N)cc(-c3nc4c5c(nc(OC[C@@]67CCCN6C[C@H](F)C7)nc5c3F)N3CC[C@H](F)CC[C@H]3N4C)c12 [Compound 83]	7.64
C#Cc1c(F)ccc2cc(N)cc(-c3nc4c5c(nc(OC[C@@]67CCCN6C[C@H](F)C7)nc5c3F)N3[C@@H](C)CCCC[C@H]3N4C)c12 [Compound 88]	7.63
C#Cc1c(F)ccc2cc(N)cc(-c3nc4c5c(nc(OC[C@@]67CCCN6C[C@H](F)C7)nc5c3F)N3CC(=C)COC[C@H]3N4C)c12 [Compound 138]	6.82
C#Cc1c(F)ccc2cc(N)cc(-c3nc4c5c(nc(OCC6(CN7CCOCC7)CC6(F)F)nc5c3F)N3CCCOC[C@H]3N4C)c12 (stereo partly shown) [Compound 165]	< 6.00
N#Cc1c(N)sc2c(F)ccc(-c3c(C4CC4)c4c5c(nc(OC[C@@]67CCCN6C[C@H](F)C7)nc5c3F)N3CCCOC[C@H]3CO4)c12 [Compound 132]	7.11
C#Cc1c(F)ccc2cc(N)cc(-c3nc4c5c(nc(OC[C@@]67CCCN6C[C@H](F)C7)nc5c3F)N3CCCC/C(=C\F)C3N4C)c12 (stereo partly shown) [Compound 85]	< 6.00
CN(C)CC1(COc2nc3c4c(nc(-c5ccc(F)c6sc(N)c(C#N)c56)c(F)c4n2)N(C)[C@@H]2COCCCN32)CC1(F)F (stereo partly shown) [Compound 164]	6.56
C#Cc1c(F)ccc2cc(N)cc(-c3nc4c5c(nc(OC[C@@]67CCCN6C[C@H](F)C7)nc5c3F)N3CC(C#N)COCC3N4C)c12 (stereo partly shown) [Compound 172]	< 6.00
C#Cc1c(F)ccc2cc(N)cc(-c3nc4c5c(nc(OC[C@@]67CCCN6C[C@H](F)C7)nc5c3F)N3CC(CF)COCC3N4C)c12 (stereo partly shown) [Compound 124]	6.39

tested on: AGS cells (K-Ras G12D); experiment: not given

pIC50	SMILES
8.00	C#Cc1c(F)ccc2cc(N)cc(-c3nc4c5c(nc(OC[C@@]67CC(=C)CN6C[C@H](F)C7)nc5c3F)N3CCCOC[C@H]3N4C)c12 [Compound 173]
8.46	C#Cc1c(F)ccc2cc(N)cc(-c3nc4c5c(nc(OC[C@@]67CCCN6C[C@H](F)C7)nc5c3F)N3C(COCC[C@@H]3C)C4=C)c12 (stereo partly shown) [Compound 128]
8.13	C#Cc1c(F)ccc2cc(N)cc(-c3nc4c5c(nc(OC[C@]67CC(=C)CN6C[C@H](F)C7)nc5c3F)N3CCCOC[C@H]3N4C)c12 [Compound 175]

tested on: AGS cells (K-Ras G12D); experiment: not given; remark: another data set of the same source

SMILES	pIC50
C#Cc1c(F)ccc2cc(N)cc(-c3nc4c5c(nc(OC[C@@]67CC(=C)CN6C[C@H](F)C7)nc5c3F)N3CCCOC[C@H]3N4C)c12 [Compound 173]	8.40
C#Cc1c(F)ccc2cc(N)cc(-c3nc4c5c(nc(OCC6(CN7CC8CC8C7)CC6)nc5c3F)N3CCCOCC3N4C)c12 (stereo not shown) [Compound 117]	7.19
C#Cc1c(F)ccc2cc(N)cc(-c3nc4c5c(nc(OC[C@@]67CCCN6C[C@H](F)C7)nc5c3F)N3C(COCC[C@@H]3C)C4=C)c12 (stereo partly shown) [Compound 128]	8.61
C#Cc1c(F)ccc2cc(N)cc(-c3nc4c5c(nc(OC(C)[C@@]67CCCN6C[C@H](F)C7)nc5c3F)N3CCCOCC3N4C)c12 (stereo partly shown) [Compound 150]	7.29
N#Cc1c(N)sc2c(F)ccc(-c3nc4c5c(nc(OC[C@@]67CCCN6C[C@H](F)C7)nc5c3F)N3CCCOC[C@H]3CO4)c12 [Compound 160]	7.40
C#Cc1c(F)ccc2cc(N)cc(-c3nc4c5c(nc(OC[C@@]67CCCN6C[C@H](F)C7)nc5c3F)N3CC(CC#N)COCC3N4C)c12 (stereo partly shown) [Compound 126]	7.38
C#Cc1c(F)ccc2cc(N)cc(-c3nc4c5c(nc(OC[C@@]67CCCN6C[C@H](F)C7)nc5c3F)N3CC(=C)COC[C@H]3N4C)c12 [Compound 138]	7.57
C#Cc1c(F)ccc2cc(N)cc(-c3nc4c5c(nc(OCC6(CN7CCOCC7)CC6(F)F)nc5c3F)N3CCCOC[C@H]3N4C)c12 (stereo partly shown) [Compound 165]	7.06
C#Cc1c(F)ccc2cc(N)cc(-c3nc4c5c(nc(OC[C@]67CC(=C)CN6C[C@H](F)C7)nc5c3F)N3CCCOC[C@H]3N4C)c12 [Compound 175]	8.62
CN(C)CC1(COc2nc3c4c(nc(-c5ccc(F)c6sc(N)c(C#N)c56)c(F)c4n2)N(C)[C@@H]2COCCCN32)CC1(F)F (stereo partly shown) [Compound 164]	6.97
C#Cc1c(F)ccc2cc(N)cc(-c3nc4c5c(nc(OC[C@@]67CCCN6C[C@H](F)C7)nc5c3F)N3CC(CF)COCC3N4C)c12 (stereo partly shown) [Compound 124]	7.71

tested on: SW620 cells (K-Ras G12V); experiment: not given

pIC50	SMILES
8.13	C#Cc1c(F)ccc2cc(N)cc(-c3nc4c5c(nc(OC[C@@]67CC(=C)CN6C[C@H](F)C7)nc5c3F)N3CCCOC[C@H]3N4C)c12 [Compound 173]
8.20	C#Cc1c(F)ccc2cc(N)cc(-c3nc4c5c(nc(OC[C@]67CC(=C)CN6C[C@H](F)C7)nc5c3F)N3CCCOC[C@H]3N4C)c12 [Compound 175]

tested on: Capan-2 cells (K-Ras G12V); experiment: not given

SMILES	pIC50
C#Cc1c(F)ccc2cc(N)cc(-c3nc4c5c(nc(OC[C@@]67CC(=C)CN6C[C@H](F)C7)nc5c3F)N3CCCOC[C@H]3N4C)c12 [Compound 173]	8.85
C#Cc1c(F)ccc2cc(N)cc(-c3nc4c5c(nc(OCC6(CN7CC8CC8C7)CC6)nc5c3F)N3CCCOCC3N4C)c12 (stereo not shown) [Compound 117]	7.73
C#Cc1c(F)ccc2cc(N)cc(-c3nc4c5c(nc(OC[C@@]67CCCN6C[C@H](F)C7)nc5c3F)N3C(COCC[C@@H]3C)C4=C)c12 (stereo partly shown) [Compound 128]	8.80
C#Cc1c(F)ccc2cc(N)cc(-c3nc4c5c(nc(OC(C)[C@@]67CCCN6C[C@H](F)C7)nc5c3F)N3CCCOCC3N4C)c12 (stereo partly shown) [Compound 150]	7.27
N#Cc1c(N)sc2c(F)ccc(-c3nc4c5c(nc(OC[C@@]67CCCN6C[C@H](F)C7)nc5c3F)N3CCCOC[C@H]3CO4)c12 [Compound 160]	7.21
C#Cc1c(F)ccc2cc(N)cc(-c3nc4c5c(nc(OC[C@@]67CCCN6C[C@H](F)C7)nc5c3F)N3CC(CC#N)COCC3N4C)c12 (stereo partly shown) [Compound 126]	7.18
C#Cc1c(F)ccc2cc(N)cc(-c3nc4c5c(nc(OC[C@@]67CCCN6C[C@H](F)C7)nc5c3F)N3CC(=C)COC[C@H]3N4C)c12 [Compound 138]	8.28
C#Cc1c(F)ccc2cc(N)cc(-c3nc4c5c(nc(OCC6(CN7CCOCC7)CC6(F)F)nc5c3F)N3CCCOC[C@H]3N4C)c12 (stereo partly shown) [Compound 165]	7.49
N#Cc1c(N)sc2c(F)ccc(-c3c(C4CC4)c4c5c(nc(OC[C@@]67CCCN6C[C@H](F)C7)nc5c3F)N3CCCOC[C@H]3CO4)c12 [Compound 132]	6.81
C#Cc1c(F)ccc2cc(N)cc(-c3nc4c5c(nc(OC[C@]67CC(=C)CN6C[C@H](F)C7)nc5c3F)N3CCCOC[C@H]3N4C)c12 [Compound 175]	9.11
CN(C)CC1(COc2nc3c4c(nc(-c5ccc(F)c6sc(N)c(C#N)c56)c(F)c4n2)N(C)[C@@H]2COCCCN32)CC1(F)F (stereo partly shown) [Compound 164]	7.48
C#Cc1c(F)ccc2cc(N)cc(-c3nc4c5c(nc(OC[C@@]67CCCN6C[C@H](F)C7)nc5c3F)N3CC(C#N)COCC3N4C)c12 (stereo partly shown) [Compound 172]	7.25
C#Cc1c(F)ccc2cc(N)cc(-c3nc4c5c(nc(OC[C@@]67CCCN6C[C@H](F)C7)nc5c3F)N3CC(CF)COCC3N4C)c12 (stereo partly shown) [Compound 124]	7.82

target: GppNp-KRAS G12V (Homo sapiens, UniProt P01116, G12V); experiment: biochemical

SMILES	pIC50
C#Cc1c(F)ccc2cc(N)cc(-c3nc4c5c(nc(OCC6(CN7CC8CC8C7)CC6)nc5c3F)N3CCCOCC3N4C)c12 (stereo not shown) [Compound 117]	6.05
C#Cc1c(F)ccc2cc(N)cc(-c3nc4c5c(nc(OC[C@@]67CCCN6C[C@H](F)C7)nc5c3F)N3CCOCC3N4C3CC3)c12 (stereo partly shown) [Compound 96]	< 6.00
C#Cc1c(F)ccc2cc(N)cc(-c3nc4c5c(nc(OC[C@@]67CCCN6C[C@H](F)C7)nc5c3F)N3CCCC[C@@H](F)C3N4C)c12 (stereo partly shown) [Compound 49]	7.00
C#Cc1c(F)ccc2cc(N)cc(-c3nc4c5c(nc(OC(C)[C@@]67CCCN6C[C@H](F)C7)nc5c3F)N3CCCOCC3N4C)c12 (stereo partly shown) [Compound 150]	< 6.00
C#Cc1c(F)ccc2cc(N)cc(-c3nc4c5c(nc(OC[C@@]67CCCN6C[C@H](F)C7)nc5c3F)N3CC=CCCC3N4C)c12 (stereo partly shown) [Compound 99]	6.13
N#Cc1c(N)sc2c(F)ccc(-c3nc4c5c(nc(OC[C@@]67CCCN6C[C@H](F)C7)nc5c3F)N3CCCOC[C@H]3CO4)c12 [Compound 160]	6.66
C#Cc1c(F)ccc2cc(N)cc(-c3nc4c5c(nc(OC[C@@]67CCCN6C[C@H](F)C7)nc5c3F)N3CC(CC#N)COCC3N4C)c12 (stereo partly shown) [Compound 126]	< 6.00
C#Cc1c(F)ccc2cc(N)cc(-c3nc4c5c(nc(OC[C@@]67CCCN6C[C@H](F)C7)nc5c3F)N3CC[C@H](F)CC[C@H]3N4C)c12 [Compound 83]	6.98
C#Cc1c(F)ccc2cc(N)cc(-c3nc4c5c(nc(OC[C@@]67CCCN6C[C@H](F)C7)nc5c3F)N3[C@@H](C)CCCC[C@H]3N4C)c12 [Compound 88]	6.92
C#Cc1c(F)ccc2cc(N)cc(-c3nc4c5c(nc(OC[C@@]67CCCN6C[C@H](F)C7)nc5c3F)N3CC(=C)COC[C@H]3N4C)c12 [Compound 138]	6.33
C#Cc1c(F)ccc2cc(N)cc(-c3nc4c5c(nc(OCC6(CN7CCOCC7)CC6(F)F)nc5c3F)N3CCCOC[C@H]3N4C)c12 (stereo partly shown) [Compound 165]	< 6.00
N#Cc1c(N)sc2c(F)ccc(-c3c(C4CC4)c4c5c(nc(OC[C@@]67CCCN6C[C@H](F)C7)nc5c3F)N3CCCOC[C@H]3CO4)c12 [Compound 132]	6.65
C#Cc1c(F)ccc2cc(N)cc(-c3nc4c5c(nc(OC[C@@]67CCCN6C[C@H](F)C7)nc5c3F)N3CCCC/C(=C\F)C3N4C)c12 (stereo partly shown) [Compound 85]	< 6.00
CN(C)CC1(COc2nc3c4c(nc(-c5ccc(F)c6sc(N)c(C#N)c56)c(F)c4n2)N(C)[C@@H]2COCCCN32)CC1(F)F (stereo partly shown) [Compound 164]	6.12
C#Cc1c(F)ccc2cc(N)cc(-c3nc4c5c(nc(OC[C@@]67CCCN6C[C@H](F)C7)nc5c3F)N3CC(C#N)COCC3N4C)c12 (stereo partly shown) [Compound 172]	< 6.00
C#Cc1c(F)ccc2cc(N)cc(-c3nc4c5c(nc(OC[C@@]67CCCN6C[C@H](F)C7)nc5c3F)N3CC(CF)COCC3N4C)c12 (stereo partly shown) [Compound 124]	< 6.00
